Laboratory results published in PubChem BioAssay AID1460 (National Center for Advancing Translational Sciences (NCATS), 2008).
About 5,800 (2.1%) of roughly 270,000 compounds were called active. This list was built around the results that the source calls inconclusive (neither active nor inactive); the mix of calls is not that of the screen. Calls follow the shape of the dose curve; as a rule, active = well fitted inhibition curve with a large enough effect; inconclusive = small, poorly fitted or top-dose-only effect; inactive = flat fitted curve, though single readings scatter. Potencies beside an inconclusive call are fits to weak or partial responses and may not hold up.
Also: nearly all actives have a fitted effect of over 55% in size.
Potency is read from the fitted curve at half-maximal effect; tags tell the direction and shape of the fitted curve.

Each compound was assayed against Microtubule-associated protein tau (Homo sapiens) (UniProt P10636) (assay: qHTS for Inhibitors of Tau Fibril Formation, Thioflavin T Binding). Conditions: recombinant tau K18 P301L, heparin-induced fibrillization, ThT fluorescence; series mostly up to 57.4 µM.
Chain of UniProt P10636 (P10636 whole entry, looked up): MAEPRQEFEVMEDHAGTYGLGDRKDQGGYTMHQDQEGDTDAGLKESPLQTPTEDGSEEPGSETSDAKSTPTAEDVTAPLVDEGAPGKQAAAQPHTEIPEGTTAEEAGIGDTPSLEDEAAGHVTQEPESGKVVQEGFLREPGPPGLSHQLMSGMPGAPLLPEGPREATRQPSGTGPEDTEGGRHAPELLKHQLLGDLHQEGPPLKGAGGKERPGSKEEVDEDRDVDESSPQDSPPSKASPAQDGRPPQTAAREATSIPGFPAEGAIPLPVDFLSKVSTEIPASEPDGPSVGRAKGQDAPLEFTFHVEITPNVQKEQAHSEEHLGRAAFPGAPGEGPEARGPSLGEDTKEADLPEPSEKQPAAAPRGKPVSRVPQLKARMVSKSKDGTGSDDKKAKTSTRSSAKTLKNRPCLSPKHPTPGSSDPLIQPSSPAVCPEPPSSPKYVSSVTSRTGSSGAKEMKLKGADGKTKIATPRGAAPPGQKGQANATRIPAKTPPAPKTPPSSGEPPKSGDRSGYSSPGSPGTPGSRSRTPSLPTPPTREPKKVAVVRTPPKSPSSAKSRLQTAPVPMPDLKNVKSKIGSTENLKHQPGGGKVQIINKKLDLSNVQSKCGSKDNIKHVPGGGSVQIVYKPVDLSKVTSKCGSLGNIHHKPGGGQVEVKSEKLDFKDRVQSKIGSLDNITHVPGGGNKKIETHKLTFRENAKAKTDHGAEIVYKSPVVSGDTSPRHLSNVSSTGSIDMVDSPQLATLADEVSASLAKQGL
Summary of the method: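 Using a mix of unlabeled (15 uM) and Alexa 594-labeled (0.24 uM) tau K18 P301L, heparin-triggered fibrillization over 6 hr at 37 C was scored by ThT fluorescence.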
With `C/C(=N\Nc1ncc(Cl)cc1Cl)c1ccc(S(=O)(=O)NCc2ccco2)cc1` the Potency was inconclusive: 14.1 µM [inhibitor, partial curve].
With `CCNC(=S)N=Nc1c(O)[nH]c2ccc(C(C)C)cc12` the Potency was inconclusive: 6.31 µM [inhibitor, partial curve].
In the case of `Cc1nn(-c2ccccc2)c(C)c1/C=N/N1CCN(c2ccccn2)CC1`, the Potency is reported as inconclusive: 14.1 µM [inhibitor, partial curve].
In the case of `O=C(Nc1nnc2n1CCS2)c1ccccc1C(F)(F)F`, the Potency is reported as “inactive”.
With `c1ccc(Cc2nn3c(COc4ccccc4)nnc3s2)cc1` the Potency was inconclusive: 35.5 µM [inhibitor, single point].
For `CCC(C)OC(=O)C(C)Oc1ccc(-c2ccccc2)cc1` (centres undefined), the Potency was inconclusive: 25.1 µM [inhibitor, partial curve].
In the case of `CCc1ccccc1NC(=O)c1ccc2nc(C(C)C)oc2c1`, the Potency is reported as “inactive”.
With `COc1cc(/C=C/c2cc(C(=O)O)c3ccccc3n2)cc(OC)c1O` the Potency was inconclusive: 10 µM [inhibitor, partial curve].
In the case of `COc1cc(N(C)C)c([N+](=O)[O-])cc1C(=O)N1CCN(Cc2ccccc2)CC1`, the Potency is reported as inconclusive: 44.7 µM [inhibitor, single point].
`Cn1c(SCC(=O)n2c3c(c4ccccc42)CCCC3)nnc1-c1ccccc1` was tested, and the Potency was inconclusive: 8.91 µM [inhibitor, full curve].
With `CCc1cnc2c(c1SCC(=O)c1ccc(Cl)cc1)c(=O)n(C)c(=O)n2C` the Potency was inconclusive: 15.8 µM [inhibitor, partial curve].
For `CCOC(=O)C1=C(c2ccccc2)OC(N)=C(C#N)C1c1ccncc1` (centres undefined), the Potency was inconclusive: 25.1 µM [inhibitor, single point].
For `COc1cc(SC)ccc1C(=O)OCC(=O)NC1CCCCC1`, the Potency was “inactive”.
`CC(=O)Oc1ccc2nc(-c3cccs3)oc(=O)c2c1` was tested, and the Potency was inconclusive: 11.2 µM [inhibitor, partial curve, poor fit].
In the case of `O=C(Nc1cccc(C(F)(F)F)c1)c1cc(-c2ccc3c(c2)OCCO3)on1`, the Potency is reported as inconclusive: 1.41 µM [inhibitor, full curve].
In the case of `CCSc1nnc(NC(=O)c2cc(=O)c3cc(C)c(C)cc3o2)s1`, the Potency is reported as inconclusive: 22.4 µM [inhibitor, partial curve, poor fit].
With `CC(=O)c1ccc(N2CCN(C(=O)CCCCn3c(=O)[nH]c4ccsc4c3=O)CC2)cc1` the Potency was inconclusive: 14.1 µM [inhibitor, partial curve].
In the case of `CCOC(=O)C1=C(C)NC(=O)NC1C1CC=CCC1` (centres undefined), the Potency is reported as “inactive”.
`O=C1C2C3C=CC(CC3)C2C(=O)N1c1ccccc1[N+](=O)[O-]` (centres undefined) was tested, and the Potency was “inactive”.
For `Cc1ccc(S(=O)(=O)N2CCCC(C(=O)NC3=NCCS3)C2)cc1` (centres undefined), the Potency was “inactive”.
`O=C1c2ccccc2C(Nc2ccc3c(c2)OCO3)N1Cc1ccc2c(c1)OCO2` (centres undefined) was tested, and the Potency was inconclusive: 17.8 µM [inhibitor, partial curve].
For `CCCn1c(NCc2cccc(OC)c2O)nc2ccccc21`, the Potency was “inactive”.
In the case of `CC1(C)CC(=O)c2cc(C(=O)Nc3ccccc3Cl)c(=O)n(-c3ccc(Cl)cc3)c2C1`, the Potency is reported as “inactive”.
With `S=C(NCC1CCCO1)N1CCN(c2nc(-c3ccccc3)cs2)CC1` (centres undefined) the Potency was inconclusive: 11.2 µM [inhibitor, partial curve].
In the case of `Cc1ccc(C(=O)COC(=O)CN2C(=O)C3C4CCC(C4)C3C2=O)cc1[N+](=O)[O-]` (centres undefined), the Potency is reported as “inactive”.
With `O=C(Oc1ccc2c(c1)OCC2=O)c1ccc(Cl)cc1` the Potency was inconclusive: 14.1 µM [inhibitor, partial curve].
`Cc1ccccc1OCCCCc1c(C)n[nH]c1C` was tested, and the Potency was inconclusive: 22.4 µM [inhibitor, partial curve, poor fit].
`Brc1cccc(-c2cnn3c(-c4ccccc4)cc(-c4ccccc4)nc23)c1` was tested, and the Potency was inconclusive: 10 µM [inhibitor, partial curve, poor fit].
With `C(=N\Nc1nc2ccccc2[nH]1)/c1ccncc1` the Potency was inconclusive: 12.6 µM [inhibitor, partial curve].
`O=C(Nc1ccc(Cl)c(C(F)(F)F)c1)C(Cc1ccccc1)NS(=O)(=O)c1ccc(Br)s1` (centres undefined) was tested, and the Potency was “inactive”.
With `Cc1cccc(N(C(=O)c2snc(C(N)=O)c2N)C(C)C(=O)NCC2CCCO2)c1` (centres undefined) the Potency was “inactive”.
With `Clc1cccc(N/N=C(\Cc2nc3ccccc3[nH]2)c2ccccc2)c1` the Potency was inconclusive: 20 µM [inhibitor, partial curve].
For `CN(C)C(/C=C/Nc1ccc([N+](=O)[O-])cc1)=C(C#N)C#N`, the Potency was inconclusive: 14.1 µM [inhibitor, partial curve].
With `COc1ccc(C)cc1NC(=O)Cn1c(=O)n(Cc2nc(C)no2)c(=O)c2ccccc21` the Potency was inconclusive: 5.62 µM [activator, partial curve, poor fit].
In the case of `O=C(Nc1nnc2n1CCS2)c1ccc(F)cc1F`, the Potency is reported as “inactive”.
For `CC1=C(C)CS(=O)N(S(=O)(=O)c2ccccc2)C1` (centres undefined), the Potency was inconclusive: 31.6 µM [inhibitor, single point].
In the case of `CCOC(=O)c1ccccc1NC(=O)CSc1nnnn1C1CCCCC1`, the Potency is reported as active: 14.1 µM.
In the case of `CCCCn1nc(C(=O)Nc2nc3c(s2)CCCC3)c2ccccc2c1=O`, the Potency is reported as inconclusive: 0.708 µM [inhibitor, full curve, poor fit].
In the case of `Cc1[nH]n(-c2ccc([N+](=O)[O-])cc2)c(=O)c1C=NCCN1CCN(C(=O)c2ccc(F)cc2)CC1`, the Potency is reported as inconclusive: 7.94 µM [inhibitor, partial curve].
In the case of `CCOC(=O)c1ccc(NC(=O)c2cc3sccc3n2Cc2ccc(Cl)cc2)cc1`, the Potency is reported as inconclusive: 7.94 µM [inhibitor, single point].
`COc1cc2c(cc1OC)CN(c1nc(CN3CCCCC3)nc3sc4c(c13)CCCC4)CC2` was tested, and the Potency was inconclusive: 20 µM [inhibitor, single point].
For `FC(F)(F)c1nc2nncn2c2c1CCCCC2`, the Potency was “inactive”.
With `CS/C(=C\[N+](=O)[O-])Nc1ccccc1` the Potency was inconclusive: 22.4 µM [inhibitor, partial curve].
With `COc1cc2[nH]c(Cl)c([N+](=O)[O-])c2cc1OC` the Potency was active: 14.1 µM.
`CCN1CCN(CCCNC(=O)c2ccc(/C=C3/Sc4ccccc4N(Cc4ccccc4F)C3=O)cc2)CC1` was tested, and the Potency was inconclusive: 39.8 µM [inhibitor, single point].
With `Cc1cc(C(=O)Nn2c(C3CCCCC3)nc3ccccc3c2=O)ccc1[N+](=O)[O-]` the Potency was “inactive”.
With `CCOC(=O)CNC(=O)c1sc2ncnc(N3CCc4ccccc4C3)c2c1C` the Potency was inconclusive: 44.7 µM [inhibitor, single point].
For `Cc1ccc(-n2nc3c(=O)n(CCCC(=O)NCCc4ccccc4Cl)nc(C)c3c2C)cc1`, the Potency was “inactive”.
`CCOc1ccc(C2CC(=O)N(c3cccc(F)c3)C3=C2C(=O)OC3)cc1` (centres undefined) was tested, and the Potency was “inactive”.
With `Cc1ccc(-c2cn(-c3cccc(Cl)c3)c(S(=O)(=O)CC(=O)Nc3ccccc3F)n2)cc1` the Potency was inconclusive: 11.2 µM [inhibitor, partial curve, poor fit].
With `CCN(CC)c1cc2c(cc1F)c(=O)c(S(=O)(=O)c1cccc(C)c1)cn2C` the Potency was “inactive”.
`COCCn1c(SCC(=O)Nc2ccc(OC)cc2)nc2c(oc3ccccc32)c1=O` was tested, and the Potency was “inactive”.
In the case of `O=C(O/N=C1\CCCc2ccccc21)c1ccc(F)cc1`, the Potency is reported as inconclusive: 0.562 µM [inhibitor, full curve].
In the case of `Cc1cc(C(=O)N/N=C/c2ccc3c(c2)OCO3)c(C)n1-c1ccc(F)cc1`, the Potency is reported as inconclusive: 17.8 µM [inhibitor, partial curve].
For `O=c1[nH]c(SCc2ccc(Cl)cc2)nc2c1CCC2`, the Potency was “inactive”.
With `CCOc1ccc(CN2CCc3nc(Nc4ccc5c(c4)OCCO5)ncc3C2)cc1` the Potency was inconclusive: 25.1 µM [inhibitor, partial curve, poor fit].
In the case of `FC(F)(F)c1cccc(Sc2nc(-c3ccccc3)nnc2C(F)(F)F)c1`, the Potency is reported as inconclusive: 14.1 µM [inhibitor, partial curve].
`COc1cccc(N2CCN(C3CC(=O)N(c4ccc(F)c(Cl)c4)C3=O)CC2)c1` (centres undefined) was tested, and the Potency was “inactive”.
With `Cn1c(SCC(=O)c2ccccc2)nnc1-c1cccnc1` the Potency was “inactive”.
In the case of `CC(C)c1ccc(NS(=O)(=O)c2ccc3nc(-c4ccccc4)[nH]c3c2)cc1`, the Potency is reported as inconclusive: 5.01 µM [activator, full curve, poor fit].
For `CCCCn1c(N)c(N(Cc2ccccc2OC)C(=O)COc2ccccc2C#N)c(=O)[nH]c1=O`, the Potency was “inactive”.
In the case of `O=c1c2ccccc2nc(N/N=C/c2ccc(O)cc2)n1O`, the Potency is reported as inconclusive: 17.8 µM [inhibitor, partial curve].
For `CO/N=C\C(=N\Nc1ccc(OC)cc1)C(=O)c1ccccc1`, the Potency was inconclusive: 12.6 µM [inhibitor, partial curve].
In the case of `O=C(CSc1ccc(Cl)cc1)N1CCC(c2nc3ccccc3s2)CC1`, the Potency is reported as inconclusive: 12.6 µM [inhibitor, partial curve].
With `N#Cc1cccc(N=Cc2c(O)ccc3ccccc23)c1` the Potency was inconclusive: 28.2 µM [inhibitor, single point].
With `O=C(CSCc1ccc(Cl)cc1)Nc1ccc(-c2nnc(-c3ccccc3)o2)cc1` the Potency was inconclusive: 0.891 µM [inhibitor, partial curve].
With `COc1ccc(C(=O)NCC(=O)N/N=C/c2ccc([N+](=O)[O-])s2)cc1OC` the Potency was inconclusive: 10 µM [inhibitor, partial curve].
In the case of `COC(=O)C1=C(CS(=O)(=O)c2ccc(C)cc2C)NC(=O)NC1c1ccc(C)cc1` (centres undefined), the Potency is reported as “inactive”.
`Cc1cc(Nc2ccccc2)nn1C(=O)c1ccc(Cl)cc1` was tested, and the Potency was inconclusive: 14.1 µM [inhibitor, partial curve].
